# Data published in article PMC12820563, “FoxP3 forms a head-to-head dimer in vivo and stabilizes its multimerization on adjacent microsatellites”.
# This is one part of the list.
# Target: T1, MBP-FoxP1dN (Mus musculus, UniProt P58462 326-579)
# T1 sequence: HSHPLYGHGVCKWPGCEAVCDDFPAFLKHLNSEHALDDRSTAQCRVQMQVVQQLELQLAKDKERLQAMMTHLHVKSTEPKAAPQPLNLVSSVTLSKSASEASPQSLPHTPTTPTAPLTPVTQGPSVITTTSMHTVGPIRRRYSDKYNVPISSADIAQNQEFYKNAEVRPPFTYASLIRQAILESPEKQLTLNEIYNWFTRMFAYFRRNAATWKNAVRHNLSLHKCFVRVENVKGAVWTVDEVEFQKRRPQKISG
# Experiment: PD-seq (MBP pull-down with sequencing); 20 mM Tris-HCl pH 7.5, 100 mM NaCl, 1.5 mM MgCl2, 0.4 uM protein, 0.1 uM dsDNA library, 30 min, room temperature, amylose pull-down; high values mean tight binding
# Details: protein: recombinant; tags: His6-MBP; chain copies: 2; dsDNA, one strand shown
# Procedure, shortened: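 The N-terminus-lacking fragment of mouse FoxP3 or FoxP1 carried a His6-MBP tag and was expressed in E. coli. At 0.4 µM it was incubated with 0.1 µM Klenow-filled degenerate double-stranded DNA library for 30 min at room temperature in Tris pH 7.5 buffer with NaCl and MgCl2, and complexes were caught on amylose resin, washed three times, released with proteinase K, PCR-barcoded and Illumina-sequenced. Binding is reads-per-million enrichment of pull-down over input with replicates pooled.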
row,Sequence,binding signal
1,GATGATTGTTCTCCCAGCTGATGAATTATCCAATTCGAGTAAACAAATTTTCCTAATCTTTCTGTTCAAGCGCCATCTAC,0.951 RPM ratio (pull-down/input)
2,GATGATTGTTCTCCCAGCTGATGAATTCCATTAATCGAGTAAACAAATTTTCCTAATCTTTCTGTTCAAGCGCCATCTAC,0.897 RPM ratio (pull-down/input)
3,GATGATTGTTCTCCCAGCTGATGAATTACTTCCTTCGAGTAAACAAATTTTCCTAATCTTTCTGTTCAAGCGCCATCTAC,0.975 RPM ratio (pull-down/input)
4,GATGATTGTTCTCCCAGCTGATGAATTGATGGTGTCGAGTAAACAAATTTTCCTAATCTTTCTGTTCAAGCGCCATCTAC,1.03 RPM ratio (pull-down/input)
5,GATGATTGTTCTCCCAGCTGATGAATTGGCGCCCTCGAGTAAACAAATTTTCCTAATCTTTCTGTTCAAGCGCCATCTAC,0.837 RPM ratio (pull-down/input)
6,GATGATTGTTCTCCCAGCTGATGAATTATTGCCTTCGAGTAAACAAATTTTCCTAATCTTTCTGTTCAAGCGCCATCTAC,1.25 RPM ratio (pull-down/input)
7,GATGATTGTTCTCCCAGCTGATGAATTGATACGATCGAGTAAACAAATTTTCCTAATCTTTCTGTTCAAGCGCCATCTAC,1.13 RPM ratio (pull-down/input)
8,GATGATTGTTCTCCCAGCTGATGAATTCCGCGATTCGAGTAAACAAATTTTCCTAATCTTTCTGTTCAAGCGCCATCTAC,0.764 RPM ratio (pull-down/input)
9,GATGATTGTTCTCCCAGCTGATGAATTTGGACTATCGAGTAAACAAATTTTCCTAATCTTTCTGTTCAAGCGCCATCTAC,0.98 RPM ratio (pull-down/input)
10,GATGATTGTTCTCCCAGCTGATGAATTATGAGTATCGAGTAAACAAATTTTCCTAATCTTTCTGTTCAAGCGCCATCTAC,1.16 RPM ratio (pull-down/input)
11,GATGATTGTTCTCCCAGCTGATGAATTATCTCCCTCGAGTAAACAAATTTTCCTAATCTTTCTGTTCAAGCGCCATCTAC,0.874 RPM ratio (pull-down/input)
12,GATGATTGTTCTCCCAGCTGATGAATTCTCGCACTCGAGTAAACAAATTTTCCTAATCTTTCTGTTCAAGCGCCATCTAC,0.816 RPM ratio (pull-down/input)
13,GATGATTGTTCTCCCAGCTGATGAATTTCCTGCTTCGAGTAAACAAATTTTCCTAATCTTTCTGTTCAAGCGCCATCTAC,0.853 RPM ratio (pull-down/input)
14,GATGATTGTTCTCCCAGCTGATGAATTTGTGTCCTCGAGTAAACAAATTTTCCTAATCTTTCTGTTCAAGCGCCATCTAC,1.27 RPM ratio (pull-down/input)
15,GATGATTGTTCTCCCAGCTGATGAATTGGAATGATCGAGTAAACAAATTTTCCTAATCTTTCTGTTCAAGCGCCATCTAC,0.901 RPM ratio (pull-down/input)
16,GATGATTGTTCTCCCAGCTGATGAATTAACTGGTTCGAGTAAACAAATTTTCCTAATCTTTCTGTTCAAGCGCCATCTAC,0.796 RPM ratio (pull-down/input)
17,GATGATTGTTCTCCCAGCTGATGAATTGGCGGATTCGAGTAAACAAATTTTCCTAATCTTTCTGTTCAAGCGCCATCTAC,0.824 RPM ratio (pull-down/input)
18,GATGATTGTTCTCCCAGCTGATGAATTGTGGATCTCGAGTAAACAAATTTTCCTAATCTTTCTGTTCAAGCGCCATCTAC,0.946 RPM ratio (pull-down/input)
19,GATGATTGTTCTCCCAGCTGATGAATTACGTGAGTCGAGTAAACAAATTTTCCTAATCTTTCTGTTCAAGCGCCATCTAC,0.995 RPM ratio (pull-down/input)
20,GATGATTGTTCTCCCAGCTGATGAATTCCTGTCTTCGAGTAAACAAATTTTCCTAATCTTTCTGTTCAAGCGCCATCTAC,0.886 RPM ratio (pull-down/input)

row,Sequence,binding signal
1,GATGATTGTTCTCCCAGCTGATGAATTTTAACCTTCGAGTAAACAAATTTTCCTAATCTTTCTGTTCAAGCGCCATCTAC,0.891 RPM ratio (pull-down/input)
2,GATGATTGTTCTCCCAGCTGATGAATTCATGAACTCGAGTAAACAAATTTTCCTAATCTTTCTGTTCAAGCGCCATCTAC,0.896 RPM ratio (pull-down/input)
3,GATGATTGTTCTCCCAGCTGATGAATTTCCTGGATCGAGTAAACAAATTTTCCTAATCTTTCTGTTCAAGCGCCATCTAC,0.788 RPM ratio (pull-down/input)
4,GATGATTGTTCTCCCAGCTGATGAATTAACTATATCGAGTAAACAAATTTTCCTAATCTTTCTGTTCAAGCGCCATCTAC,0.924 RPM ratio (pull-down/input)
5,GATGATTGTTCTCCCAGCTGATGAATTAGACGGTTCGAGTAAACAAATTTTCCTAATCTTTCTGTTCAAGCGCCATCTAC,0.9 RPM ratio (pull-down/input)
6,GATGATTGTTCTCCCAGCTGATGAATTCACGTTCTCGAGTAAACAAATTTTCCTAATCTTTCTGTTCAAGCGCCATCTAC,0.852 RPM ratio (pull-down/input)
7,GATGATTGTTCTCCCAGCTGATGAATTTTTGTCATCGAGTAAACAAATTTTCCTAATCTTTCTGTTCAAGCGCCATCTAC,1.39 RPM ratio (pull-down/input)
8,GATGATTGTTCTCCCAGCTGATGAATTTGGTTCCTCGAGTAAACAAATTTTCCTAATCTTTCTGTTCAAGCGCCATCTAC,0.82 RPM ratio (pull-down/input)
9,GATGATTGTTCTCCCAGCTGATGAATTGGCCATATCGAGTAAACAAATTTTCCTAATCTTTCTGTTCAAGCGCCATCTAC,0.87 RPM ratio (pull-down/input)
10,GATGATTGTTCTCCCAGCTGATGAATTCGAGTCTTCGAGTAAACAAATTTTCCTAATCTTTCTGTTCAAGCGCCATCTAC,0.874 RPM ratio (pull-down/input)
11,GATGATTGTTCTCCCAGCTGATGAATTCCGTCTATCGAGTAAACAAATTTTCCTAATCTTTCTGTTCAAGCGCCATCTAC,0.859 RPM ratio (pull-down/input)
12,GATGATTGTTCTCCCAGCTGATGAATTGACTTTTTCGAGTAAACAAATTTTCCTAATCTTTCTGTTCAAGCGCCATCTAC,1.09 RPM ratio (pull-down/input)
13,GATGATTGTTCTCCCAGCTGATGAATTATGACCTTCGAGTAAACAAATTTTCCTAATCTTTCTGTTCAAGCGCCATCTAC,0.925 RPM ratio (pull-down/input)
14,GATGATTGTTCTCCCAGCTGATGAATTCGTGACCTCGAGTAAACAAATTTTCCTAATCTTTCTGTTCAAGCGCCATCTAC,0.802 RPM ratio (pull-down/input)
15,GATGATTGTTCTCCCAGCTGATGAATTCTTTCGTTCGAGTAAACAAATTTTCCTAATCTTTCTGTTCAAGCGCCATCTAC,0.894 RPM ratio (pull-down/input)
16,GATGATTGTTCTCCCAGCTGATGAATTGCTCGACTCGAGTAAACAAATTTTCCTAATCTTTCTGTTCAAGCGCCATCTAC,0.946 RPM ratio (pull-down/input)
17,GATGATTGTTCTCCCAGCTGATGAATTTTCGGCATCGAGTAAACAAATTTTCCTAATCTTTCTGTTCAAGCGCCATCTAC,1.1 RPM ratio (pull-down/input)
18,GATGATTGTTCTCCCAGCTGATGAATTGCGATAGTCGAGTAAACAAATTTTCCTAATCTTTCTGTTCAAGCGCCATCTAC,1.05 RPM ratio (pull-down/input)
19,GATGATTGTTCTCCCAGCTGATGAATTCTTAATGTCGAGTAAACAAATTTTCCTAATCTTTCTGTTCAAGCGCCATCTAC,1.21 RPM ratio (pull-down/input)
20,GATGATTGTTCTCCCAGCTGATGAATTCACCTCATCGAGTAAACAAATTTTCCTAATCTTTCTGTTCAAGCGCCATCTAC,0.832 RPM ratio (pull-down/input)
